Data from article PMC4336329 (PLoS ONE, 2015).
Hit rate of the full screen: of about 310,000 compounds, about 14,000 (4.5%) showed an effect of 50% or more. The effect is printed as a negative number. Some of the results follow.

target: human ether-à-go-go-related gene (hERG) potassium channel (human, UniProt Q12809); assay: primary screen, population patch clamp on CHO cells stably expressing hERG
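Also: peak tail current of the secondary pulse compared with the same well before compound.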

human ether-à-go-go-related gene (hERG) potassium channel, sequence (Q12809 whole entry, looked up): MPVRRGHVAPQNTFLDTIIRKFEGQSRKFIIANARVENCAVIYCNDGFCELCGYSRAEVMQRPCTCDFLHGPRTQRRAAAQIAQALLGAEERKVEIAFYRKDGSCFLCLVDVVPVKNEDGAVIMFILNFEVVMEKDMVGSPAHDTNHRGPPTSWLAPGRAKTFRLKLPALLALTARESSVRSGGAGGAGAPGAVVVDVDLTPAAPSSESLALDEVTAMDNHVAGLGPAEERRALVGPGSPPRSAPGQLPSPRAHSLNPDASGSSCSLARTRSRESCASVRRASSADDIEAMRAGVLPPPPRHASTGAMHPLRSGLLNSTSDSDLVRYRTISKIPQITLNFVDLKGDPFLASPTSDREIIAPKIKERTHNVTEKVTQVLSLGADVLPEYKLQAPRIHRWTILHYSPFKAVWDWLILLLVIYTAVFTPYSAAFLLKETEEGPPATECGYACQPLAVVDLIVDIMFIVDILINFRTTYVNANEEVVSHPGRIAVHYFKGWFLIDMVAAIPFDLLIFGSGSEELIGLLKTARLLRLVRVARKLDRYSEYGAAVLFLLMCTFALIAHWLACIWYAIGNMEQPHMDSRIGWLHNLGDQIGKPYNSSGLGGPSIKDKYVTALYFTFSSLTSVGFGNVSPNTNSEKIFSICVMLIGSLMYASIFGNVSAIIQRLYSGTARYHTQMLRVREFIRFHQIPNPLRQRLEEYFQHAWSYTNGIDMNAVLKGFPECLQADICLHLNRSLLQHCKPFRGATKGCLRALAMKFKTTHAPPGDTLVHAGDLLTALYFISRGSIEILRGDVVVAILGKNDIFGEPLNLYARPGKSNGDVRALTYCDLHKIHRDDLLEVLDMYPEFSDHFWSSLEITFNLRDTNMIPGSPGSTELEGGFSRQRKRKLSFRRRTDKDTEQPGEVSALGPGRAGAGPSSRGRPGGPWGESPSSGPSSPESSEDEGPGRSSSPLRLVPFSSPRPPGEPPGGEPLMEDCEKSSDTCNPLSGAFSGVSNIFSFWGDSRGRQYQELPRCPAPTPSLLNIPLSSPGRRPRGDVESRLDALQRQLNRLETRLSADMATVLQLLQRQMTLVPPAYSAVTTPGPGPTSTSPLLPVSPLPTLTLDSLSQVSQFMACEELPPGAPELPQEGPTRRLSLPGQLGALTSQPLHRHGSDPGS

| Structure (SMILES) | hERG current change (%, negative = inhibition) at 10uM [%] |
| --- | --- |
| COc1ccccc1NC(=O)c1ccc(NC(=O)c2ccco2)cc1 | -0.0528 |
| COc1ccc2nc(NC(=O)CC3Oc4ccccc4NC3=O)sc2c1 (stereo not shown) | 20.9 |
| O=C1CCc2cc(S(=O)(=O)Nc3ccc(C(F)(F)F)cc3)cc3c2N1CC3 | -2.69 |
| Cn1c(=O)c2c(nc(Br)n2CCSc2nc3ccccc3o2)n(C)c1=O | -7.12 |
| N#Cc1cccc(C(=O)OCC(=O)NC(=O)NC2CCCCC2)c1 | -4.44 |
| COc1ccccc1OCCCC(=O)Nc1ccc([N+](=O)[O-])cc1Br | -7.68 |
| COCCNC(=O)c1c(CS(=O)(=O)c2ccccc2)noc1C(=O)NCc1ccccc1 | 8.05 |
| Cc1nc(N2CCOCC2)nc(OCCN(C)C)c1[N+](=O)[O-] | 3.34 |
| CCN(C(=O)CSc1nnc(C2CC2)n1-c1ccccc1)C1CCS(=O)(=O)C1 (stereo not shown) | 0.453 |
| Cn1c(=O)cc(OCC(=O)N2CCCc3ccccc32)c2ccccc21 | -3.03 |
| COc1ccccc1C(=O)Nc1ccc(NC(=O)C2CCCCC2)nc1 | 11.8 |
| CC(C)(C)c1nnc2sc(SCC(=O)c3ccc(Cl)cc3)nn2c1=O | 14.5 |
| NC(=O)CC(NC(=O)Cc1cccc2ccccc12)c1ccc(N2CCC(N3CCCCC3)CC2)c([N+](=O)[O-])c1 (stereo not shown) | 4.24 |
| CCCCc1c(O)c2cccc3c2n(c1=O)CCC3 | 17 |
| Cc1nnsc1NC(=O)OCC(C)(C)C | 4.6 |
| CC1(C)C2CC=C(/C=N/NC(=O)c3ccccc3O)C1C2 (stereo not shown) | 19 |
| O=C(NCc1ccccc1)NC1(C(=O)N2CCN(c3ccccc3)CC2)CCCCC1 | -18.4 |
| O=C(O)c1c2c(nc3ccccc13)/C(=C/c1ccccc1[N+](=O)[O-])CCC2 | 1.89 |
| O=C(c1ccc(S(=O)(=O)N2CCOCC2)cc1)N1CCN(C2=NS(=O)(=O)c3ccccc32)CC1 | 3.52 |
| Cc1ccc(S(=O)(=O)Nc2ccc(N(C)S(=O)(=O)c3ccc(C)cc3)cc2)cc1 | -5.95 |
| CCOc1ccc(NC(=S)N2CCC(N(C)CC3CCCO3)CC2)cc1 (stereo not shown) | -25.6 |
| CCN1CCN(CCCNC(=O)c2cc3c(=O)oc4ccc(C)cc4c3s2)CC1 | -19.1 |

| Structure (SMILES) | hERG current change (%, negative = inhibition) at 10uM [%] |
| --- | --- |
| N#Cc1c2n(c3c(=O)n(CC(=O)c4ccc([N+](=O)[O-])cc4)cnc13)CCCCC2 | -8.48 |
| Cc1[nH]c2ccccc2c1SCC(=O)N1CCCc2ccccc21 | 1.07 |
| O=C(Nc1cccc(S(=O)(=O)Nc2ccccc2Cl)c1)c1ccc(Cl)nc1 | -8.9 |
| Nc1nc(OCc2ccccc2)c2[nH]cnc2n1 | -0.131 |
| C=CCc1ccccc1OCC(O)CN1CCN(c2ccc(C)cc2)CC1 (stereo not shown) | -44.7 |
| CCOC(=O)c1cc2ccc3ccccc3c2s1.O=C(O)CCCCC(=O)O | 13.1 |
| COc1ccccc1C(=O)NCCC(=O)N1CCCC(C(F)(F)F)C1 (stereo not shown) | 22.5 |
| Cc1nn(Cc2ccccc2)c(C)c1C(=O)OCC(=O)Nc1cccc(S(N)(=O)=O)c1 | -0.587 |
| COc1ccccc1NS(=O)(=O)c1cc(NC(=O)CC(C)(C)C)ccc1N1CCOCC1 | -16.3 |
| COc1ccc(-c2cn(CCC(=O)O)c(-c3ccc(Cl)nc3)n2)cc1 | 9.6 |
| CN1CCCN(c2ccc([N+](=O)[O-])nc2)CC1 | 2.45 |
| C=CCNC(=S)Nc1c(C(=O)OC)[nH]c2cc(OC)ccc12 | 17.4 |
| O=C(O)c1ccc2c(c1)C(=O)N(c1nccs1)C2=O | -1.09 |
| Cn1c(-c2ccc3c(c2)OCO3)cnc1N | -16.5 |
| O=C(CC1CC2CCC1C2)NCCc1ccc(Cl)cc1 (stereo not shown) | -27 |
| OCCN(CC#CC(O)(c1ccccc1)c1ccccc1)CCO | 5.56 |
| Nc1nc(NCc2ccccc2)nc(Nc2ccc(F)cc2)c1[N+](=O)[O-] | 7.02 |
| CC(=O)Nc1sc(C)c(C)c1C(=O)OC(C)C | 8.77 |
| CCOC(=O)N1CCC(NC(=O)Cn2cc3c(n2)CCCC3)CC1 | 0.774 |
| CC(C)OC(=O)c1c(N)n(Cc2ccco2)c2nc3ccccc3nc12 | -31.4 |
| O=C(NCCS(=O)(=O)NCc1ccccc1Cl)c1ccc2c(c1)OCO2 | -16.2 |
| COc1ccc(F)cc1S(=O)(=O)N1CCCCC1 | -13.8 |

| Structure (SMILES) | hERG current change (%, negative = inhibition) at 10uM [%] |
| --- | --- |
| S=C(NC1CCCCCC1)NC1CCCC1 | -1.12 |
| CCOC(=O)[C@@H]1[C@H]2COc3cc(OC)ccc3[C@@H]2N2C(=O)N(c3cccc(F)c3)C(=O)[C@@]12C | 3.88 |
| CCOc1ccc(NC(=O)C[n+]2ccc(N(C)C)cc2)cc1.[Cl-] | 11.8 |
| CCCNS(=O)(=O)c1ccc(C(=O)NCC2CCCO2)cc1 (stereo not shown) | -6.36 |
| COc1cccc(NC(=O)CN(C)C(=O)c2cccc(S(=O)(=O)Nc3ccc(C)cc3)c2)c1 | -11.7 |
| COC(=O)c1ccc(Nc2ncnc3sccc23)cc1 | 10.1 |
| COC(=O)C(C)Sc1nc2c(c(=O)n1-c1ccccc1)SCC2 (stereo not shown) | -6.49 |
| COc1ccc(NS(=O)(=O)c2cccc(C(=O)NNC(=O)c3cccc(NC(C)=O)c3)c2)cc1 | 6.41 |
| Cc1nn(-c2ccccc2)c(N)c1N=Nc1cccnc1 | -6.73 |
| COc1ccc(C2c3[nH]c4ccccc4c3C[C@H]3C(=O)N(C4CCN(Cc5ccccc5)CC4)CC(=O)N23)c(OC)c1 (stereo partly shown) | -25 |
| COc1ccc(OCCN2C(=O)c3ccccc3C2=O)cc1 | 4.25 |
| Cc1nn(-c2cccc(Cl)c2)c2c1C(c1ccncc1)C(C#N)=C(N)O2 (stereo not shown) | 6.79 |
| CC1=NN(C(=O)CSCc2ccccc2)C(O)(c2ccc(F)cc2)C1 (stereo not shown) | -13.1 |
| Cc1nc(N2CCN(c3ccccc3)CC2)nc2c1C(=O)CC(c1ccccc1)C2 (stereo not shown) | 10.7 |
| CC1CCC(NCCNC(=O)c2ccco2)CC1 (stereo not shown) | 11.8 |
| CC(=O)c1c(C)[nH]c(C(=O)OCC(=O)Nc2cc(C)on2)c1C | 9.91 |
| CCN(Cc1ccccc1)C(=O)c1c[nH]c2ccc(S(=O)(=O)N(C)CCC#N)cc2c1=O | -0.855 |
| COc1ccc(NC(=O)Nc2ncn(Cc3cccc(C(F)(F)F)c3)n2)cc1OC | -32.5 |
| CC[N+](C)(CC)CCCCOc1ccc2c(c1)C(=O)c1cc(OCCCC[N+](C)(CC)CC)ccc1-2.[I-] | 12.9 |
| O=C(Nc1nncs1)c1cc(S(=O)(=O)N2CCCCC2)ccc1Cl | 10.2 |
| Cc1ccc(Nc2nnc(SCC(=O)NC3CCS(=O)(=O)C3)s2)c(C)c1 (stereo not shown) | 10.6 |
| CCn1ccnc1CN1CCC(CO)(CCOc2ccccc2)CC1 | -8.02 |

| Structure (SMILES) | hERG current change (%, negative = inhibition) at 10uM [%] |
| --- | --- |
| Cc1ccccc1-c1c(C)oc2cc(O)ccc2c1=O | -4.58 |
| Cc1cccc(-n2ncc(Cl)c(Cl)c2=O)c1 | 22.2 |
| O=C(Cn1cnc([N+](=O)[O-])c1)NCc1ccc(F)cc1 | 7.86 |
| O=C(COc1cc(Cl)c(Cl)cc1Cl)N1CCN(c2ccccn2)CC1 | 16 |
| Cc1cccn2cc(CCNC(=O)c3ccc(Br)o3)nc12 | -22 |
| O=C(CN1C(=O)c2ccccc2C1=O)N1CCN=C1c1ccccc1 | 6.66 |
| CCOc1ccc(NC(=O)CC2SC(N)=NC2=O)c([N+](=O)[O-])c1 (stereo not shown) | 8.5 |
| CCc1nc(N)c(C#N)c(-c2ccc(F)cc2)c1C | 8.14 |
| c1ccc(N=P(c2nc3ccccc3o2)(N2CCOCC2)N2CCOCC2)cc1 | 9.22 |
| O=C(CSc1nc(-c2ccco2)cc(C(F)(F)F)n1)N1CCN(c2cccc(Cl)c2)CC1 | 0.43 |
| O=C(Nc1nc2ccccc2n1CCN1CCOCC1)c1ccc(Cl)cc1 | 1.72 |
| Cc1ccccc1OCC(=O)Nc1ccc(NC(=O)c2ccco2)cc1 | 9.7 |
| Cc1cccn2c(=O)c3cc(C(=O)N4c5ccccc5CC4C)n(C)c3nc12 (stereo not shown) | 8.08 |
| CC(=O)Nc1cccc(C(=O)NCCc2ccco2)c1 | 9.48 |
| N#Cc1c(N2C(=O)C3C4C=CC(C4)C3C2=O)sc2c1CCC2 (stereo not shown) | 5.25 |
| N=Cc1c(O)n(-c2ccccc2)c(=O)n(-c2ccccc2)c1=O | 13.1 |
| O=C(Oc1cccc([N+](=O)[O-])c1)C1CCN(C(=O)c2ccc(F)cc2)CC1 | -41 |
| Cc1onc(-c2ccccc2Cl)c1C(=O)Nc1cccc2cccnc12 | -4.17 |
| CCN1CCN(c2ccc(S(=O)(=O)N3CCCCC3)cc2N)CC1 | -11.5 |
| CC/C(=N/O)C(=O)c1ccc(Br)cc1 | 2.19 |
| CSc1ccc(CN2CCC(Oc3cccc(C(=O)N4CCCC4)c3)CC2)cc1 | -60.7 |
| CC1(C)C2CCC1(CS(=O)(=O)Nc1cccc(S(N)(=O)=O)c1)C(=O)C2 (stereo not shown) | 13.3 |
